# Source: article PMC12136788
# This is one part of the list.
# B1: chr20:63933867:63933968:+|3pUTR|ENSG00000101152|msi1|total|mutant (ssRNA)
# RNA: GGGAGUUCUACAGUCCGACGAUCAUCAGAGUGGGCCCCUUGCCAGGUGGCUUUUCAGUUACAGAGUCCAGUGGACCAUUUUGCCGAACCAUGCAGCUCCCUGCGGAAGGUGGGGCCGGGUGGGAAAGAGGAGCAGGUCUGGAGCAACAGAGGAUUGAGCAUCA
# B2: chr3:186538440:186538695:-|three_prime_utr|ENSG00000213139|control|control|control (ssRNA)
# RNA: GGGAGUUCUACAGUCCGACGAUCACAUGAAUGGGGCCAUAUUCUUCCUGGGGCCCAAAUGCUGGCUGGCCUUGUGGUCCAAAUAGGCAUCAUCAAUAAAACAGUUGGCAUGCAUCCCACUGCUGACUAUAAUGCCUCUCCUUACAACAGAGGAUUGAGCAUCA
# B3: ENSG00000136451:be:win_2801|3pUTR|ENSG00000136451|bound_else_gene|NA|bound_elsewhere_windowed (ssRNA)
# RNA: GGGAGUUCUACAGUCCGACGAUCAGCAAUGAUUAUGCACGUUGAGACAUGUGCUUUUUAUUUCUUAGCAAGAUAUUUUAUCUCUGUACAUAAAGUAGAAACCAAAAGCUAGGGAAACAGAUACUCUUUACACCAUCAUGCCACCAACAGAGGAUUGAGCAUCA
# B4: ENSG00000168297:stop:overlap|stop_codon|ENSG00000168297|stop_codon|NA|stop_codon (ssRNA)
# RNA: GGGAGUUCUACAGUCCGACGAUCCUGGGGCCAGCUCACCUCUCACGUCCCCGUCAUCGCCAACUCCACCCUCUACAUCAGGUUAGUGAUGGAGUAAAGUGACAUGCCACCUUCCUGUCCGCCAACAGGAGGAGCGGGCUGUGCCAACAGAGGAUUGAGCAUCA
# B5: chr9:116699486:116699595:+|CDS|ENSG00000119401|unk|total|mutant (ssRNA)
# RNA: GGGAGUUCUACAGUCCGACGAUCUUCCGCUGCAUUGCUGGCAUGUGUGUGGAUGCUCGUGGUGAUCUCAUCGUGGCUGACAGCCGUCGCAAGGAAAUUCUCCAUUUUCCUAAGGGUGGGGGCUACCGUGUCCUUAUUCGAGAGCAACAGAGGAUUGAGCAUCA
# B6: chr3:25596636:25596694:+|3pUTR|ENSG00000077092|msi1_unk|total|mutant (ssRNA)
# RNA: GGGAGUUCUACAGUCCGACGAUCUCCCCAGUACCUUCAGUUCCAGGAUUUAAAAUGCAAGAAAAAACAUUUUUACUGCUGCUCCGUUUUUGGACUGAAAAGAUAUUAAAACUCAAGAAGGACCAAGAAGUUUUCAUAUGUAUCCAACAGAGGAUUGAGCAUCA
# Molecular target: T1, UNK ZnF1-6 (called full-length) (human, UniProt Q9C0B0 30-357)
# T1 sequence: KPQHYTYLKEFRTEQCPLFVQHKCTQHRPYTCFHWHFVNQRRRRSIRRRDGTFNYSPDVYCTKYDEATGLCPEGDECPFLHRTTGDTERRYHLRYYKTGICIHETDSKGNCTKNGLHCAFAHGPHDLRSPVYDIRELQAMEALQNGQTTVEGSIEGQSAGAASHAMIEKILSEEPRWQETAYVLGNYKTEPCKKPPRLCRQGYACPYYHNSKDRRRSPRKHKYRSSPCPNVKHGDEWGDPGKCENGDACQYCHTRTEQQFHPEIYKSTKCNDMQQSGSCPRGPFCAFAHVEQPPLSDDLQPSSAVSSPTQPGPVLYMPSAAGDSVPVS
# Assay: nsRBNS (natural sequence RNA bind-n-seq); RBNS binding buffer (assumed for nsRBNS): 25 mM Tris pH 7.5, 150 mM KCl, 3 mM MgCl2, 0.01% Triton X-100, 500 ug/ml BSA, 20 U/ml SUPERase-In, 4 C; UNK is unkempt and MSI1 is Musashi-1; names of the RNAs are library labels; protein concentration not given here; high values mean tight binding
row,Binder,binding signal [enrichment R]
1,B1,1.03
2,B2,0.697
3,B3,0.638
4,B4,1.05
5,B5,0.747
6,B6,0.36
